Measured values taken from PubChem BioAssay AID1346428 (National Center for Advancing Translational Sciences (NCATS), 2018).
Values joined by “and” are separate entries in the source; they are usually repeats but may differ in a detail not shown here. Equal values may be shown once. The whole screen tested about 48,000 compounds, of which about 1,200 (2.5%) were called active. Not shown: some 2% with an inconclusive outcome.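 How the source made its calls: active means activation of at least 60% and not above a set upper limit (about 1 call in 100 departs from these limits); inconclusive means activation of 40% to 60%, or above that upper limit; inactive means activation under 40%.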 The list shows a part of the results.

Target: Probable G-protein coupled receptor 32 (Homo sapiens) (UniProt O75388)
Chain of UniProt O75388 (O75388 whole entry, looked up): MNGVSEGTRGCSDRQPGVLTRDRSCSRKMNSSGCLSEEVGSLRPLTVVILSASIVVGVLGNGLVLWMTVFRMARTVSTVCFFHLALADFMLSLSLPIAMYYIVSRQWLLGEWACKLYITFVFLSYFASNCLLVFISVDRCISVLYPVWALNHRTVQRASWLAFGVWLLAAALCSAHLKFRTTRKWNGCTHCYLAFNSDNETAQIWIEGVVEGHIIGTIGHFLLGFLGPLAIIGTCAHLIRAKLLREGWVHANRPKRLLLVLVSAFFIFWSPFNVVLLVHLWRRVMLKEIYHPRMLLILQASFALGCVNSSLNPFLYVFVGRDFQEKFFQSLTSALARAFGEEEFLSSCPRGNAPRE
Test: qHTS for Agonists of Human Resolvin D1 Receptor DRV1; further: 0% is about no effect
Conditions: CHO-K1 GPR32 beta-arrestin PathHunter luminescence, 90 min; at 76.9 µM; hits give high values; zero percent set by DMSO-only wells
Method in brief: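 Beta-arrestin recruitment read-out: luminescence from complemented beta-Gal in CHO-K1 GPR32 PathHunter cells, measured 1 h after detection reagent at ambient temperature following 90 min compound exposure at 37 °C; DMSO served as basal (EC0) control.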

Structure (SMILES)	activation
CCN1CCc2c(sc(NC(=O)c3ccc(S(=O)(=O)N(C)C4CCCCC4)cc3)c2C(N)=O)C1	inactive: -15.9%
COc1cn(CC(=O)Nc2c(C)cc(C)cc2C)c(CN2CCCCC2)cc1=O	inactive: -4.81%
CCOCCc1nn2c(=O)cc(COC(=O)COc3ccc(C)c(C)c3)nc2s1	inactive: -9.69%
CC(C)c1ccc(NC(=O)c2ccc3oc(=O)c(S(=O)(=O)c4ccc(F)cc4)cc3c2)cc1	inactive: -12.9%
CCc1ccc(NC(=O)CC2C(=O)NCCN2C(=O)c2ccccc2OC)cc1 (centres undefined)	inactive: -5.67%
Cc1nc(SCc2cc(=O)c3cccc(F)c3[nH]2)n[nH]1	inactive: 2.03%
CCOc1ccc(S(=O)(=O)NCCc2csc3nc(-c4ccc(OC)c(OC)c4)nn23)cc1	inactive: -8.01%
COc1ccccc1CNCc1ccc(C(=O)O)s1	inactive: -21.4%
Clc1cccc(CSc2nc(NCCc3ccccc3)c3ccccc3n2)c1	inactive: -26.3%
CC(C)c1ccc(NC(=O)CSc2ncnc3c2sc2ccccc23)cc1	inactive: -4.27%
COc1ccc(NC(=O)Cn2ncc3c(C)n(Cc4cccc(Cl)c4)c(C)c3c2=O)cc1	inactive: -6.31%
COc1ccc(C(=O)Nc2ccc(N3CCN(c4ccccc4)CC3)c(C(=O)O)c2)cc1	inactive: 4.19%
COc1c(C)cccc1C(=O)Nc1ccc(Cl)c(-c2nc3cc(C)ccc3o2)c1	inactive: -4.44%
CCOc1ccc(CCNC(=O)CSc2nc3ccccc3nc2Cc2ccc(C)cc2)cc1OCC	inactive: 35.3%
CC(C)CCOc1ccc(Cn2c(=O)sc3ccccc32)cc1	inactive: -19%
COc1ccc(-c2nc3sc(CCNC(=O)Cc4ccc(Cl)cc4)c(C)n3n2)cc1	inactive: -14%
CCN(CC)c1ccc(NC(=O)CN(C)S(=O)(=O)c2cccc3nsnc23)c(C)c1	inactive: 0.768%
CCOc1ccc(C2C(=O)N(C3CCCCCC3)CC(=O)N2Cc2ccc(F)cc2)cc1OC (centres undefined)	inactive: -30.5%
CCN(CC)c1ccc(C(=O)NCc2ccc3c(c2)CCN3C(=O)c2cccc(C)c2)cc1	inactive: -7.4%
CC(=O)OC[C@H]1O[C@@H](n2ncc(=O)[nH]c2=O)[C@H](OC(C)=O)[C@@H]1OC(C)=O	inactive: 0.313%
CCOc1ccccc1NC(=O)Nc1ccc2nc(N3CCN(C)CC3)cc(C)c2c1	inactive: -3.69%

Structure (SMILES)	activation
CCOc1ccc(CCNC(=O)C(CC(C)C)N2Cc3ccccc3C2=O)cc1OCC (centres undefined)	inactive: -9.72%
COc1ccc(NC(=O)C(NC(=O)Cc2cccs2)c2ccc(OC)cc2)cc1 (centres undefined)	inactive: 0.0022%
Cc1cc(Br)cc(C)c1NC(=O)c1cnc2ccccn2c1=O	inactive: -14.4%
COc1cccc(NS(=O)(=O)c2ccc3[nH]c4c(c3c2)CCCCCC4)c1	inactive: 3.07%
Cn1c2c(c(=O)n(C)c1=O)C(c1cccc(O)c1)CC(=O)N2 (centres undefined)	inactive: -9.97%
CCOC(=O)c1ccc(NC(=O)CC2Nc3cccc4cccc(c34)NC2=O)cc1 (centres undefined)	inactive: -0.453%
Cc1noc(C)c1S(=O)(=O)Nc1ccc(C(=O)Nc2ccc(C(C)C)cc2)cc1	active: 91%
COc1ccc(-c2onc(C)c2C)cc1S(=O)(=O)N1CCc2ccccc21	inactive: -6.94%
CCc1ccc(CN(C(=O)c2ccc(OC)cc2)C2CCS(=O)(=O)C2)cc1 (centres undefined)	inactive: -3.25%
COc1cc2c(cc1NC(=O)COc1ccc(Br)c(C)c1)oc1ccccc12	inactive: 1.03%
CCC12CN3CC(CC)(CN(C1)C3c1cccc(OC)c1O)C2=O (centres undefined)	inactive: -12.9%
CCOC(=O)c1c(NC(=O)CCCOc2ccc(C)cc2)sc2c1CCC(C)C2 (centres undefined)	inactive: -3.44%
COc1ccc(C2=CC(c3ccccc3Cl)n3nc(-c4ccc(C)cc4)nc3N2)cc1 (centres undefined)	inactive: -13.9%
CCc1ccc(-n2c(SCc3nc(-c4cc(OC)ccc4OC)no3)nnc2-c2ccccc2)cc1	inactive: -20.2%
CCOC(=O)Cn1c(=O)n(-c2ccccc2OC)c2nc(-c3ccccc3)nc(C(N)=O)c21	inactive: -1.23%
CCc1nnc(SCC(=O)Nc2ccc(Cl)cc2F)c2cc3occc3n12	inactive: -18.6%
CCc1ccc(CNC(=O)c2ccc(CS(=O)c3ccc(Br)cc3)o2)cc1 (centres undefined)	inactive: -20.6%
Cc1cccc(N2CCN(C(=O)c3cn(C)c4ccc(S(=O)(=O)N(C)C)cc4c3=O)CC2C)c1 (centres undefined)	inactive: 0.0261%
Cc1ccc2nc(N(Cc3cccnc3)C(=O)c3ccco3)sc2c1	inactive: -14.7%
COc1ccc(-c2c(C)c3ccc(O)c(CN4CCCCC4)c3oc2=O)cc1OC	inactive: -5.42%
CCn1c(C(=O)NCc2ccc(C)cc2)cc2sc(Cl)cc21	inactive: -22.6%

Structure (SMILES)	activation
COc1ccc(-c2nc3ccccc3s2)cc1NC(=O)c1ccc(C#N)cc1F	inactive: 6.75%
CCCCCn1c(=O)[nH]c2cc(C(=O)N3CCN(c4cccc(Cl)c4)CC3)ccc2c1=O	inactive: 4.44%
CN(c1ccccc1)S(=O)(=O)c1nnc(NC(=O)c2ccco2)s1	active: 92.8%
Cc1ccccc1NC(=O)c1cc2sccc2n1Cc1ccc(F)cc1	inactive: -7.88%
COc1ccc(OC)c(CNC(=O)c2cc(S(=O)(=O)N3CCC(C)CC3)cn2C)c1	inactive: 5.8%
COc1cc2oc(=O)c(CC(=O)NCCc3ccccc3)c(C)c2cc1Cl	inactive: -4.87%
CCOC(=O)CCn1c(=O)c2cccn2c2cccnc21	inactive: -12.4%
CSc1nn(Cc2ccccc2C)c(NC(C)=O)c1S(=O)(=O)c1ccc(C)cc1	inactive: -9.11%
COc1ccc(NC(=O)CCc2nc3c(C)nn(-c4ccc(C)cc4)c3n(C)c2=O)c(OC)c1	inactive: 2.22%
COCCN1Cc2cccc(C(=O)Nc3ccc(C(=O)OC)cc3)c2C1=O	inactive: 7.38%
Cc1ccc(NC(=O)c2cc(S(=O)(=O)N3CCC(C)CC3)cn2C)cc1Cl	inactive: -0.797%
Cc1cc2cc(CCNS(=O)(=O)c3ccc(Br)cc3)c(=O)[nH]c2cc1C	inactive: 49.1%
CCOc1ccc(-c2c(C)nn3c(C)c(C(=O)Nc4cccc(Cl)c4C)cnc23)cc1OCC	inactive: 13.4%
COCCNC(=O)CCCn1c(SCC(=O)c2ccc(F)cc2)nc2c(sc3ccccc32)c1=O	inactive: -11.8%
N[C@@H]1CONC1=O	inactive: 6.87% and inactive: -4.99%
COc1ccccc1C(=O)Nc1ccc2nc(SCC(=O)N3CCCC3)sc2c1	inactive: -25.3%
Cc1ccc2nc(-c3ccsc3)c(Nc3ccc(C(C)C)cc3)n2c1	inactive: -26.6%
O=C(CCS(=O)(=O)c1nc(-c2cccs2)cc(C(F)(F)F)n1)Nc1ccc(Br)cc1	inactive: -42.7%
Cc1ccc(CS(=O)Cc2ccc(C(=O)NCc3ccccc3Cl)o2)cc1 (centres undefined)	inactive: -14.7%
Cc1ccc(NC(=O)C2CCCN(c3cnccn3)C2)cc1Cl (centres undefined)	inactive: -1.26%
Cc1ccccc1CN1C(=O)c2ccccc2Sc2ccc(C(=O)O)cc21	inactive: 3.67%

Structure (SMILES)	activation
O=C(O)COCCN1CCN(C(c2ccccc2)c2ccc(Cl)cc2)CC1 (centres undefined)	inactive: -4.3%
CCOc1ccc(NC(=O)CCc2nc3cccnc3n2Cc2ccc(OC)cc2)cc1	inactive: 35.2%
Nc1nnc(SCC(=O)Nc2cccc(F)c2)s1	inactive: 0.371%
COc1ccccc1C(=O)Nc1cccc(OCc2cc(=O)n3c(C)csc3n2)c1	inactive: 5.26%
O=S(=O)(c1cc(Br)c(Br)s1)N1CCN(c2ccccc2)CC1	inactive: 9.98%
Cc1ccc(S(=O)(=O)c2nnn3c2nc(NCc2ccccc2)c2sccc23)cc1	inactive: -22.8%
CC(C)c1ccc(NC(=O)C2CCN(S(=O)(=O)c3ccc(Br)s3)CC2)cc1	inactive: 10.8%
COc1ccc(-c2noc(N3CCN(c4ccc(Cl)cc4)CC3)n2)cc1OC	inactive: 24.9%
CCc1nn2c(=O)cc(COC(=O)c3cccc(NC(=O)COc4ccccc4)c3)nc2s1	inactive: -12.1%
CCOc1ccc(CCNC(=O)c2cc3cc4cc(OC)ccc4nc3s2)cc1OCC	inactive: 14.1%
CN1C[C@H](C(=O)N[C@]2(C)O[C@@]3(O)[C@@H]4CCCN4C(=O)[C@H](Cc4ccccc4)N3C2=O)C[C@@H]2c3cccc4[nH]cc(c34)C[C@H]21	inactive: -4.23% and inactive: -18%
COc1cccc(NC(=O)CCSc2nc(-c3ccco3)cc(C(F)(F)F)n2)c1	inactive: -25.1%
COc1ccc2c(c1)CCc1c(C(=O)Nc3cnn(Cc4ccc(Cl)cc4Cl)c3)noc1-2	inactive: -20.4%
CC(C)Cc1nn2c(=O)cc(COC(=O)c3ccccc3NC(=O)c3cccs3)nc2s1	inactive: -10.9%
CCOc1ccccc1NC(=O)C(=O)c1cc(C)n(-c2cccc(C)c2C)c1C	inactive: -1.66%
Cc1cccc(NC(=O)C2CCN(S(=O)(=O)c3ccc4[nH]c5c(c4c3)CCCCC5)CC2)c1	inactive: 2.32%
Cc1cc(C)cc(NC(=O)Cn2cc(C(=O)c3ccncc3)c(=O)c3cc(C)c(C)cc32)c1	inactive: -23.1%
CCc1cccc(C)c1NC(=O)C1CCN(c2nnc(C)c3c(C)n(-c4ccccc4)nc23)CC1	inactive: -19.3%
COc1ccc(CNC(=O)C2CCN(S(=O)(=O)c3ccc4nc5c(c(C(=O)O)c4c3)CCCC5)CC2)cc1	inactive: -23.6%
CN1CCN(c2ncc3c(n2)CCN(Cc2ccc(Br)s2)C3)CC1	inactive: -36.8%
CCOc1ccc(NC(=O)COc2ccc(S(=O)(=O)NC3CCCCC3)cc2)cc1	inactive: 36.6%
